# Results taken from ChEMBL document CHEMBL4888484, “Replenishing the malaria drug discovery pipeline: Screening and hit evaluation of the MMV Hit Generation Library 1 (HGL1) against asexual blood stage Plasmodium falciparum ,using a nano luciferase reporter read-out” (2022).
# Hit rate of the full screen: of about 150,000 compounds, about 540 (0.36%) showed an effect of 50% or more. The list shows a part of the results.
# Tested on: Plasmodium falciparum
# Experiment: Primary screen in NF54 nanoGlo assay, in single point, at 2uM, 72h; a lower Z score goes with more inhibition
# Type: functional, Erythrocyte
# Settings: timepoint 72 hour
SMILES,% Inhibition [%],Z score
O=C(c1cc(-c2ccccc2Cl)nn1-c1ccc(Cl)c(Cl)c1)N1CCN(c2ccccc2Cl)CC1,-6,1.06
O=C(COc1ccc(Cl)cc1Cl)Nc1nnc([C@@H]2CCCO2)o1,4,-0.44
CCCc1c(C(=O)N2CCN(c3nc4nccc(-c5ccc(C(C)(C)C)cc5)n4n3)CC2)cnn1-c1ccccc1,-5,0.55
COCC(=O)N(C1CCOCC1)[C@H]1CCN(C(=O)Cc2ccccc2Cl)C1,28,-3.17
COCCC1CCCCN1C(=O)CC1(c2ccc(-c3ccccc3)cc2)CC(=O)N(C2CC2)C1=O (stereo unspecified),7,-0.94
CN(CCCc1cnn(C)c1)c1nc(N)nc2ccc(C(=O)O)cc12,-11,1.03
COc1cc(C)c(S(=O)(=O)N(C2CC2)C2(C#N)CCC2)cc1C,-5,0.61
CCNC(=O)CCS(=O)(=O)Cc1cccc(OC)c1,6,-1.09
CC(=O)Nc1ccnn1CC1=CCCN(Cc2ncccc2C)C1,9,-1.36
C#CCN(CC(=O)N1CC(C)OC(C)C1)Cc1cccc(C)n1 (stereo unspecified),-4,0.68
Cc1nc([C@@H](C)Cn2cccn2)n(-c2cccc3cccnc23)n1,11,-1.39
O=C(N[C@@H]1CN(C(=O)CC2CCCCC2)C[C@H]1CO)c1ccccc1,-14,2.44
CC1(C)[C@@H](N(O)C(=O)Nc2cccc(C(F)(F)F)c2)N(c2cccc(C(F)(F)F)c2)C(=O)N1Cc1ccc2c(c1)OCO2,4,-0.52
O=C1N[C@@H](CC2CCCCC2)C(=O)N[C@@H](Cc2ccccc2)C(=O)NCc2cn(nn2)CCOc2ccc(Cl)cc21,1,-0.2
O=C(CCc1ccncc1)N1CCCC[C@@H]1CCc1cccc(O)c1,-20,1.86
CCc1nc(C2CCCN(C(=O)C3COc4ccccc4C3)C2)cc(=O)[nH]1 (stereo unspecified),-2,0.21
C[C@@H](CC(N)=O)N(C)C(=O)Cc1ccc(CO)cc1,-8,1.38
COCCCNC(=O)[C@]1(C)Cn2nc(-c3ccccc3)cc2C(=O)N1Cc1cccc(C)c1,2,-0.34
Cc1ccc(N2C[C@@H](c3noc(-c4cccc(N(C)C)c4)n3)CC2=O)cc1,4,-0.36
O=C(CN1C(=O)CCn2nc(-c3ccc(Cl)cc3)cc21)NCc1ccccc1,-9,0.94
COc1ccc(CN(C)S(C)(=O)=O)cc1F,22,-2.6

SMILES,% Inhibition [%],Z score
COc1cccc(-c2ccc(N3CCN(C(=O)CN(Cc4ccccc4)C(=O)CC(C)C)CC3)nn2)c1,-19,1.84
COc1ccc(NC(=O)CN2C(=O)[C@H]3CCCC3=Nc3ccccc32)cc1,1,-0.17
CO[C@H]1C[C@H](C(=O)Nc2cc(Cl)ccc2OC(C)C)N(S(C)(=O)=O)C1,9,-1.5
O=C(NCCc1ccc(=O)[nH]c1)C1CCC1c1ccc(F)cc1 (stereo unspecified),1,-0.1
CN1CCN(C(=O)c2cc(Br)c3c(c2)OCCO3)CC1,-5,0.83
CN1C(=O)C[C@H](NS(=O)(=O)CC2CCCC2)C1=O,-17,3.13
Cc1ccccc1-c1nnn(CC(=O)N(C2CCCCC2)C2CCCCC2)n1,-9,1.28
Cc1c(C(=O)NCCC(C)C)c(C(F)(F)F)nn1C1CCN(C(C)C)CC1,12,-1.38
C[C@@H](Cn1cccn1)C(=O)NC1CCN(S(=O)(=O)c2ccccc2)CC1,-23,3.9
CC(C)(C)OC(=O)N1CCC(c2nc(-c3ccccc3)no2)CC1,14,-1.78
CCCn1ncc(C(=O)N2CCc3nc(N)sc3C2)c1C,8,-1.07
Cc1ccc(CN2CCC[C@H](Cn3c(C)cnc3C3CC3)C2)o1,-14,1.78
O=C(Cc1ccsc1)NCc1cn(-c2cccnc2)nn1,3,-0.5
Cc1cc(NC(=O)N2CCNC(=O)CC2)nn1C1CCCCC1,-4,0.85
Cc1occc1C(=O)NC[C@](C)(CC(C)C)NC(=O)c1ccoc1C,-8,1.03
O=C1CCC(=O)N1c1ccc(-c2ccc(N3C(=O)CCC3=O)cc2)cc1,-13,1.75
CCn1cc(C(=O)N(Cc2ccc(OC)cc2OC)C2CCCC2)c(C)n1,-9,1.46
Cn1cc(-c2ccn(Cc3cccc(C(=O)O)c3)n2)cn1,-42,4.89
COC(=O)c1n[nH]cc1-c1cc(-c2cc3ccccn3c2)nc(N)c1C#N,-7,1.27
COc1ccc(CCC(=O)Nc2ccon2)cc1,3,-0.36
CC(C)[C@H](C)N(C)c1nccn2cncc12,-4,0.41

SMILES,% Inhibition [%],Z score
CCOC1CC(NC2CCN(C)C2=O)C1(CC)CC (stereo unspecified),-12,1.24
CC(C)(N)COc1c(F)c(F)c(F)c(F)c1F,4,-0.55
COc1ccc(Cc2nc(-c3ccoc3)n(CC(C)(C)O)n2)cc1,-11,2.18
C#CCCN1CCN(C(=O)[C@@H](C)CC(=O)OC)CC1,-6,0.94
O=C1N[C@@](Cc2ccccc2Cl)(C2CCN(Cc3ccc4c(c3)CCO4)CC2)C(=O)N1CC1CC1,8,-1.05
Cc1cc(C(=O)NCc2ccc(NC(=O)C(F)(F)F)nc2)nn1C,-7,0.96
CC1CN(C(C)C(=O)N2CC(=O)Nc3ccccc32)CCO1 (stereo unspecified),-5,0.57
C=C(c1ccc(C)cc1)n1c(=O)[nH]c2ccccc21,-8,0.86
COCCN1CCC(C(=O)N2CCC(Oc3cccc(F)c3)CC2)CC1,-13,1.46
COc1ccc(CC(=O)N2c3ccccc3C[C@H]2c2nc(C3CC3)no2)cc1OC,-7,0.98
COC(=O)c1n[nH]c2c1CN(c1nccc(C)n1)CC2,-8,0.89
CN(C)CC1CCC(NC(=O)c2cc(S(=O)(=O)N3CCCCC3)ccc2Cl)CC1 (stereo unspecified),-7,0.77
CN(C[C@H]1CCCN1C)c1ncc(C#N)c(N)n1,-7,0.84
CNC(=O)c1noc(CNC(=O)c2cccc(N3Cc4ccccc4C3)c2)n1,10,-1.4
c1cc(-c2noc(C3CC3)n2)ccc1O[C@H]1CCNC1,-6,0.7
Cc1noc(C)c1C(=O)Nc1ccc2c(c1)C(=O)N(C)C2=O,-24,2.86
C[C@H]1CCN(CCNC(=O)Nc2cc3ccccc3nn2)C1,2,-0.29
CCc1ccccc1-n1c(=O)c2cc(C)ccc2n(CC(=O)N2CCOCC2)c1=O,-26,2.48
CC(C)Cc1cc(CN2C[C@H]3C[C@H](O)[C@H](O)C[C@H]3C2)n[nH]1,-5,0.54
CC(C)Nc1nc2nonc2n2cnnc12,77,-8.71
Cc1nc(-c2ccccc2)cc2nn(CC(=O)N3CCOCC3)c(=O)n12,34,-4.93

SMILES,% Inhibition [%],Z score
O=C1C[C@]2(NC(=O)c3ccc(C(F)F)cc3F)CCCC[C@@H]2N1,-3,0.37
COc1c(C2CCCN2C2CC(C)OC2=O)c(C)nn1C (stereo unspecified),-7,0.77
CC(C)[C@H](CO)CNC(=O)N(C)Cc1ncc[nH]1,-12,1.63
CC(=O)Nc1ccc(NC(=O)CN2CC[C@H](c3ccncc3)C2)cc1,-7,1.05
CCC(CC)NC(=O)CON=C(N)c1cccs1,-4,0.53
OC[C@@H]1COCCN(Cc2ccc(Cl)s2)C1,20,-2.51
CN1C(=O)C[C@H](NS(=O)(=O)CCc2cccs2)C1=O,-2,0.35
CCn1ccc2cc(CN3C[C@@H]4[C@H](C3)[C@H]4C(=O)O)ccc21,-3,0.67
CCCc1nc(Cn2c(C(C)C)cc(=O)c3cccc(CC)c32)no1,-4,0.47
CC(C)N1CCN(C(=O)c2nc(-c3ccnc(N4CCCC4)c3)no2)CC1,-15,2.62
Cc1ccccc1CN1C(=O)CCn2nccc21,-5,0.69
O=C(Cc1ccccc1)Nc1ccc2c(c1)Cc1cc(NC(=O)Cc3ccccc3)ccc1-2,-17,2.15
CC1CCCC(OC(C)C(=O)N2CC3CCCC(C2)C3O)C1 (stereo unspecified),10,-0.86
CCN(CC)c1nc2cc(C(=O)NCc3ccccc3)ccc2c(=O)n1Cc1ccc(C)cc1,-9,1.6
COc1ccccc1NC(=O)c1sc(=S)n(Cc2ccccc2)c1N,3,-0.31
C[C@H]1Cc2cc(S(=O)(=O)Nc3nnc(C4CC4)o3)ccc2O1,-16,1.37
COCC[C@](C)(O)CNC(=O)c1csc(C2CCCCC2)c1,10,-1.23
COc1ccc(C[C@]2(C)OC(c3ccccc3)=NN2C(C)=O)cc1,-1,0.14
Cc1oc2ncnc(N3CCC[C@H](C(=O)NCc4ccc5c(c4)OCO5)C3)c2c1C,3,-0.31
O=C(Cc1cccs1)NCc1nn(C2CCCC2)c2c1COCC2,-16,3.02
